Literature values as cited in article PMC11006913.
This is one part of the list.

target: HOXD13 Q325K (Homo sapiens) (UniProt P35453); conditions: PBM; conditions not shown; double strand, one strand shown; scale: upbm affinity estimate (log intensity, higher = more binding, comparable within an allelic series)
Chain of UniProt P35453 (P35453 263-343 Q325K): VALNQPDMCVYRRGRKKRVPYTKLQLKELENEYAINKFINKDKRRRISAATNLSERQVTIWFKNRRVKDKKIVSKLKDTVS

Row | Sequence | binding signal
1 | GATAAATC [8-mer GATAAATC] | 12.2
2 | GTTTAAAC [8-mer GTTTAAAC] | 12.4
3 | GGCATAAC [8-mer GGCATAAC] | 12
4 | ATTTATGC [8-mer ATTTATGC] | 12.4
5 | AGAATAAA [8-mer AGAATAAA] | 12.2
6 | GGGTATAA [8-mer GGGTATAA] | 12.4
7 | GGTTTAAA [8-mer GGTTTAAA] | 12.6
8 | GCATAAAC [8-mer GCATAAAC] | 12.6
9 | GATAAAAA [8-mer GATAAAAA] | 12.4
10 | CAGATAAA [8-mer CAGATAAA] | 12.5
11 | TGGTATAA [8-mer TGGTATAA] | 12.2
12 | TGGGATAA [8-mer TGGGATAA] | 12.1
13 | ATTATCCG [8-mer ATTATCCG] | 12.1
14 | TAGATAAA [8-mer TAGATAAA] | 12.2
15 | GGATAAAA [8-mer GGATAAAA] | 13.2
16 | GGCTAAAA [8-mer GGCTAAAA] | 11.7
17 | AGGATAAA [8-mer AGGATAAA] | 12.6
18 | TGGCATAA [8-mer TGGCATAA] | 12.2
19 | TGCATAAA [8-mer TGCATAAA] | 12.2
20 | GCATTAAA [8-mer GCATTAAA] | 12.4

Row | Sequence | binding signal
21 | AGATAAAT [8-mer AGATAAAT] | 12.5
22 | GGCATAAA [8-mer GGCATAAA] | 13.1
23 | GTATTAAC [8-mer GTATTAAC] | 12.4
24 | GGATAACC [8-mer GGATAACC] | 11.8
25 | GGTATAAC [8-mer GGTATAAC] | 12.2
26 | AGGTATAA [8-mer AGGTATAA] | 12.2
27 | GGGATAAA [8-mer GGGATAAA] | 13.2
28 | GGATATAA [8-mer GGATATAA] | 12.3
29 | CGGATAAC [8-mer CGGATAAC] | 12
30 | CGGATAAA [8-mer CGGATAAA] | 13.4
31 | GGATGAAA [8-mer GGATGAAA] | 11.5
32 | GTTTATAA [8-mer GTTTATAA] | 12.3
33 | GGTGTAAA [8-mer GGTGTAAA] | 12.9
34 | AAGATAAA [8-mer AAGATAAA] | 12.2
35 | AGATAAAC [8-mer AGATAAAC] | 12.2
36 | GGGAATAA [8-mer GGGAATAA] | 12.2
37 | ATTTTATC [8-mer ATTTTATC] | 12.5
38 | GGGGATAA [8-mer GGGGATAA] | 12.3
39 | GAATAAAC [8-mer GAATAAAC] | 12.2
40 | AGGCATAA [8-mer AGGCATAA] | 12.1
